Results: PubChem BioAssay AID588342 (National Center for Advancing Translational Sciences (NCATS), 2011)
Among all 360,000 compounds or so, about 25,000 (6.9%) were called active. Inconclusive results, whose numbers are uncertain, are shown with a selection of clear calls. The call rests on the fitted dose curve; in most records, active means well fitted inhibition curve with a large enough effect; inconclusive means small, poorly fitted or top-dose-only effect; inactive means flat fitted curve, though single readings scatter. Where the call is inconclusive, the potency comes from a doubtful curve fit.

Target: Luciferin 4-monooxygenase (Photinus pyralis) (UniProt P08659)
Assay: qHTS profiling assay for firefly luciferase inhibitor/activator using purifed enzyme and Km concentrations of substrates (counterscreen for miR-21 project); further: nearly all actives have a fitted effect of over 55% in size;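 on activity change, negative = inhibition: plate controls were vehicle for no effect and reference inhibitor for full effect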
Conditions: purified FLuc, luminescence inhibition; series mostly up to 57.5 µM; activity change, negative = inhibition: at the top concentration
How it was run: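 Purified P. pyralis luciferase, 10 nM final, with Km-level 10 uM D-luciferin and 10 uM ATP in 50 mM Tris acetate pH 7.5, 10 mM Mg acetate, 0.01% Tween-20, 0.05% BSA; 6-point qHTS titration about 60 µM downward; luminescence read.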
Potency means the concentration at half of the fitted maximal effect; tags describe the fitted curve by direction and shape.

Sequence of UniProt P08659 (P08659 whole entry, looked up): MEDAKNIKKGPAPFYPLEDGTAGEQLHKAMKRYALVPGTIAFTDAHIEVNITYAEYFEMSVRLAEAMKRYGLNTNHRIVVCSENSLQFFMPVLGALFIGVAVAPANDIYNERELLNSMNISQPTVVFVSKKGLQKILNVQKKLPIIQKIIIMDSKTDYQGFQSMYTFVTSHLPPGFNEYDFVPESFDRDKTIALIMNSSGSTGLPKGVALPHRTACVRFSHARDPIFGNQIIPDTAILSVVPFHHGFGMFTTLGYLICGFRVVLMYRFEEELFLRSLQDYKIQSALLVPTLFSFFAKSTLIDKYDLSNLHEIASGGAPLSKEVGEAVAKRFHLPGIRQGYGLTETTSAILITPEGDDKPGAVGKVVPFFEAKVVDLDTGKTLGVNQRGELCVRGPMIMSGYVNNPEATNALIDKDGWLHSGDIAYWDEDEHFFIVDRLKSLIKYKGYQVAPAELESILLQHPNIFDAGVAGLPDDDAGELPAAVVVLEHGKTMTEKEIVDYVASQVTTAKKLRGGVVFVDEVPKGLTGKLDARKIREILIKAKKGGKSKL

Row | SMILES | Potency | activity change, negative = inhibition
1 | CCN(c1ccccc1)S(=O)(=O)c1nnc(NC(=O)COc2ccc(OC)cc2)s1 | inconclusive: 23.9 µM [inhibitor, partial curve, poor fit] | –
2 | C/C(=N\O)c1ccc2c(c1)CC(C)O2 (configuration not stated) | inconclusive: 37.9 µM [inhibitor, partial curve, poor fit] | –
3 | CC(Oc1ccc(Br)cc1)c1nc2c3ccccc3nc(=S)n2[nH]1 (configuration not stated) | inconclusive: 23.9 µM [inhibitor, single point] | –
4 | CCc1ccccc1NS(=O)(=O)c1ccc2[nH]cc(C(=O)NCC3CCCO3)c(=O)c2c1 (configuration not stated) | inconclusive: 23.9 µM [inhibitor, partial curve, poor fit] | –
5 | Cc1ccccc1CSc1nnc(-c2ccccn2)n1C | inconclusive: 21.3 µM [inhibitor, partial curve, poor fit] | –
6 | COCCNC(=O)C1CCN(S(=O)(=O)c2ccc3c(c2)CCCN3C(C)=O)CC1 | – | inactive: 1.06%
7 | Cc1cc(-c2csc(NC(=O)c3ccc(S(=O)(=O)N(C)C)cc3)n2)c(C)n1-c1ccccc1 | inconclusive: 37.9 µM [inhibitor, partial curve, poor fit] | –
8 | CN(C)S(=O)(=O)Oc1ccc(C(=O)Nc2cccc(C(F)(F)F)c2)cc1 | inconclusive: 37.9 µM [inhibitor, partial curve, poor fit] | –
9 | CNC(=O)COC(=O)c1cccnc1SC | – | inactive: 0.817%
10 | O=C(O)C1CCCCC1C(=O)Nc1nc(-c2ccc(Cl)s2)cs1 (configuration not stated) | inconclusive: 19 µM [inhibitor, partial curve] | –
11 | O=c1c(Cl)cc(Cl)nn1-c1ccccc1 | – | inactive: 1.86%
12 | Fc1ccccc1/C=N/Nc1nc2ccccc2o1 | active: 3.01 µM | –
13 | COc1ccc(/C=C/C(=O)OCC(=O)Nc2cccc(Oc3ccccc3)c2)c(OC)c1 | inconclusive: 37.9 µM [inhibitor, partial curve, poor fit] | –
14 | C/C(N)=C(/C#N)C(=O)COC(=O)COc1ccc(Cl)cc1C | inconclusive: 23.9 µM [inhibitor, partial curve, poor fit] | –
15 | CCN(CC)C(=O)c1c(Cl)nc(C)c([N+](=O)[O-])c1C | – | inactive: -0.769%
16 | COc1ccc(CSc2nc3ncccc3[nH]2)cc1 | active: 19 µM | –
17 | Cc1ccnc(NC(=O)COc2ccc3oc4c(c3c2)CCCC4)c1 | active: 4.26 µM | –
18 | Cc1ccc(S(=O)(=O)N2CCN(C(=O)COC(=O)/C=C/c3ccccc3[N+](=O)[O-])CC2)c(C)c1 | – | inactive: 5.66%
19 | Cc1cccc(OCC(=O)Nc2ccc(S(=O)(=O)Nc3cc(C)nc(C)n3)cc2)c1 | inconclusive: 0.0107 µM [inhibitor, partial curve, poor fit] | –
20 | O=C(CN1CCN(S(=O)(=O)c2ccc(F)cc2)CC1)Nc1ccc(F)cc1F | inconclusive: 19 µM [inhibitor, partial curve, poor fit] | –
21 | Cn1cc(C2CC(c3ccccc3)=NN2C(=O)c2ccccc2)c2ccccc21 (configuration not stated) | inconclusive: 37.9 µM [inhibitor, single point] | –
22 | Clc1cccc(CNc2ncnc3c2nc2n3CCCC2)c1 | – | inactive: -1.87%
23 | CCn1c2ccccc2c2cc(NC(=O)c3cc(OC)c(OC)c(OC)c3)ccc21 | – | inactive: -13.4%
24 | Cc1cc(-c2ccco2)c(C#N)c2nc3ccccc3n12 | inconclusive: 6.75 µM [inhibitor, partial curve] | –

Row | SMILES | Potency | activity change, negative = inhibition
25 | CCCCNC(=O)c1cc2ccccc2s1 | active: 16.9 µM | –
26 | O=C1CC(c2nc3ccccc3n2CCCCOc2ccccc2)CN1c1ccccc1Cl (configuration not stated) | – | inactive: 0.0461%
27 | CC(C)c1nnc(NC(=O)COc2ccc3c(c2)OCO3)s1 | inconclusive: 30.1 µM [inhibitor, single point] | –
28 | C=CCNS(=O)(=O)c1ccc(OCC(=O)OCC)cc1 | – | inactive: -0.96%
29 | Cc1cccc(COc2ccc(/C=N/NC(=O)c3nnn(-c4nonc4N)c3CN3CCCCC3)cc2)c1 | – | inactive: -12.6%
30 | NNC(=O)c1ccc(Cn2cc(Cl)cn2)o1 | – | inactive: -16%
31 | CC(C)(C)Nc1nc(-c2ccccn2)nc2ccccc12 | – | inactive: -1.03%
32 | O=C(CSc1nnc(C2CC2)n1CC1CCCO1)Nc1cccc(Cl)c1 (configuration not stated) | – | inactive: 1.4%
33 | Cc1ccc(OCC(=O)Nc2ccc(C)c(F)c2)c([N+](=O)[O-])n1 | active: 9.53 µM | –
34 | O=C(CC1Sc2ncnn2C1=O)Nc1ccc(Br)cc1 (configuration not stated) | inconclusive: 37.9 µM [inhibitor, partial curve, poor fit] | –
35 | CCc1ccc(-c2nc(CSCC(=O)NCc3ccccc3OC)c(C)o2)cc1 | inconclusive: 21.3 µM [inhibitor, partial curve] | –
36 | Cc1c(/C=N/NC(=O)c2ccc(Br)o2)cnn1C | inconclusive: 37.9 µM [inhibitor, single point] | –
37 | COc1cc(CNc2ccc(N3CCN(C(C)=O)CC3)cc2)ccc1OCc1ccccc1 | inconclusive: 23.9 µM [inhibitor, partial curve, poor fit] | –
38 | CCOc1ccc2nc(SCC(=O)Nc3cc4c(cc3C(C)=O)OCO4)[nH]c2c1 | inconclusive: 16.9 µM [inhibitor, partial curve, poor fit] | –
39 | Cc1ccccc1CNC(=O)C(C)n1nc(C)n2c(cc3occc32)c1=O (configuration not stated) | – | inactive: -8.66%
40 | CN1C(=O)/C(=N\OC(=O)c2ccccc2Cl)c2ccccc21 | inconclusive: 30.1 µM [inhibitor, single point] | –
41 | CC(C)(C)c1ccc(Oc2ccc(N)cc2)cc1 | inconclusive: 19 µM [inhibitor, partial curve] | –
42 | C/C=C/c1ccc(OCC(=O)Nc2cc(OC)c(OC)c(OC)c2)c(OC)c1 | – | inactive: -9.19%
43 | O=[N+]([O-])c1ccc2nc(-c3ccc(Cl)cc3)[nH]c2c1 | active: 3.01 µM | –
44 | CC(=O)c1sc(NC(=O)c2cnc(Cl)c(Cl)c2)nc1C | inconclusive: 4.78 µM [inhibitor, partial curve, poor fit] | –
45 | O=C(O)CCCCc1nc2ccccc2s1 | inconclusive: 37.9 µM [inhibitor, partial curve, poor fit] | –
46 | O=C(Nc1nc2c(F)cccc2s1)C1CC1 | inconclusive: 26.9 µM [inhibitor, single point] | –
47 | O=C(c1cc(-c2ccc(Cl)cc2)n[nH]1)N1CCN(C(=O)c2ccco2)CC1 | inconclusive: 23.9 µM [inhibitor, partial curve, poor fit] | –
48 | CCOc1ccc(-c2ccc(NS(=O)(=O)c3cc(C)ccc3OC)cc2)nn1 | – | inactive: -0.0081%

Row | SMILES | Potency | activity change, negative = inhibition
49 | O=C(NCCOc1ccc(F)cc1)C1CCC(=O)N(CCN2CCOCC2)C1 (configuration not stated) | inconclusive: 37.9 µM [inhibitor, single point] | –
50 | Cc1cc(NS(=O)(=O)c2ccc(NC(=O)c3oc4ccccc4c3C)cc2)no1 | inconclusive: 26.9 µM [inhibitor, single point] | –
51 | Cc1ccc(N2CCN(C(=O)c3nn(C)c4c3CS(=O)(=O)c3ccccc3-4)CC2C)cc1 (configuration not stated) | inconclusive: 19 µM [inhibitor, partial curve, poor fit] | –
52 | Cc1cc(-n2c(C)cc(C(=O)CSc3ccc4c(c3)OCCO4)c2C)no1 | inconclusive: 21.3 µM [inhibitor, single point] | –
53 | Cc1ccc(Cn2cc(CCC(=O)NC3CCCCC3)c3ccccc32)cc1 | – | inactive: -10.6%
54 | Cc1ccc(NC(=O)COC(=O)C2CC2)c(Br)c1 | inconclusive: 26.9 µM [inhibitor, single point] | –
55 | CCCCCSc1nnc2c(n1)OC(c1ccc(C)s1)N(C(C)=O)c1ccccc1-2 (configuration not stated) | – | inactive: 2.89%
56 | Oc1ccccc1-c1nc(/C=C/c2ccc(F)cc2)no1 | active: 0.757 µM | –
57 | O=C(Cn1c(NCCO)nc2ccccc21)c1cccs1 | inconclusive: 37.9 µM [inhibitor, partial curve, poor fit] | –
58 | CCOC(=O)CNC(=O)CSc1ncnc2c1cnn2-c1ccc(OC)cc1 | inconclusive: 26.9 µM [inhibitor, partial curve] | –
59 | O=C(N/N=C/c1ccccc1OC(=O)c1ccc2c(c1)OCO2)c1ccccc1 | inconclusive: 37.9 µM [inhibitor, single point] | –
60 | COc1ccc2nc(N=Nc3ccc(N(C)C)cc3)sc2c1 | active: 0.0675 µM | –
61 | CCN(CC)c1ccc(/C=N/NC(=O)CNC(=O)c2ccccn2)cc1 | inconclusive: 16.9 µM [inhibitor, partial curve] | –
62 | Cc1cc(C(=O)Nc2ccc(OCc3ccccc3)cc2)c(C)o1 | active: 16.9 µM | –
63 | C=CCNc1nc(Cl)nc(Nc2ccccc2)n1 | inconclusive: 9.53 µM [inhibitor, partial curve] | –
64 | CNC(=O)c1cc(C(=O)c2ccc(Cl)cc2)c[nH]1 | inconclusive: 37.9 µM [inhibitor, partial curve, poor fit] | –
65 | Cc1csc(NC(=O)Cc2c(F)cccc2Cl)n1 | inconclusive: 26.9 µM [inhibitor, single point] | –
66 | O=C1CC[C@@H](OCc2ccccc2)CCN1CC[C@H](Sc1ccccc1)c1ccccc1 | inconclusive: 37.9 µM [inhibitor, partial curve, poor fit] | –
67 | CC(CCc1ccccc1)NC(=O)CN1CCN(c2ccc(O)cc2)CC1 (configuration not stated) | – | inactive: 4.15%
68 | O=C(O)CCN1C(=O)/C(=C\c2cccc(OCc3ccccc3)c2)SC1=S | inconclusive: 21.3 µM [inhibitor, single point] | –
69 | O=C(OCC(=O)N1CCN(c2ccccc2)CC1)c1cccc([N+](=O)[O-])c1 | – | inactive: 7.94%
70 | N#C/C(=N\Nc1ccc(Cl)cc1)C(N)=S | active: 19 µM | –
71 | CCN(C(=O)c1sc2nc3n(c(=O)c2c1C)CCCCC3)c1ccccc1F | inconclusive: 37.9 µM [inhibitor, partial curve, poor fit] | –
72 | CC(C)(C)c1ccc(C(=O)NCC(=O)OCCN2C(=O)c3ccccc3C2=O)cc1 | inconclusive: 26.9 µM [inhibitor, single point] | –
